# Data: PubChem BioAssay (NCATS)
# Several values for one entry are separate records, joined by “and”; a condition that tells them apart may be missing. Equal entries are not always repeated. Inconclusive results, whose numbers are uncertain, are shown with a selection of clear calls. For some of these results: Potencies beside an inconclusive call are fits to weak or partial responses and may not hold up. The source holds several records for some structures; these can differ, active in one and inactive in another. Activity calls are given as the source filed them. Unless noted, calls come from the whole dose curve; as a rule, active = well fitted curve in the direction sought with a large enough effect; inconclusive = small, poorly fitted or top-dose-only effect, or another doubt; inactive = no such curve, though single readings can be large; an effect the other way counts as inactive or inconclusive.
# Legend:
# [1] = Primary qHTS for small molecule stabilizers of the endoplasmic reticulum resident proteome: Secreted ER Calcium Modulated Protein (SERCaMP) assay (AID 1508630); settings: SH-SY5Y GLuc-SERCaMP (Gaussia luciferase released on ER calcium loss) secretion, thapsigargin, luminescence; series mostly up to 38.4 µM; note: potency is the fitted concentration of half-maximal effect
# Method in brief: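 GLuc-SERCaMP-expressing SH-SY5Y cells, pretreated 16 h with compound, are challenged with thapsigargin to empty ER calcium stores; after 4 h, coelenterazine is added directly to the medium and luminescence is imaged.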
# [2] = A High-Content qHTS Against Drug Library for the Identification of Small Molecules that Inhibit DYT1 Early Onset Primary Dystonia-Associated Cell Pathology (AID 1645839; calls by dose curve; note: potency is the fitted concentration of half-maximal effect)
# Method in brief: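 Flp-In T-REx 293 cells with tetracycline-inducible EGFP-delE hTOR1A (WT EGFP-hTOR1A as reference), 800 cells/well; compound added with tetracycline, 48 h at 37 C. Fixed, permeabilized cells imaged; %pathology (punctate TorsinA) primary, cell count counterscreen.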
# [3] = Primary qHTS for inhibitors of nuclear receptor binding SET domain protein 2 (NSD2) in an isogenic RCH-ACV NSD2 p.E1099K mutant (9B) (AID 1645876); note: nearly all actives have a fitted effect of over 70% in size; note: potency is the fitted concentration of half-maximal effect
# [4] = Primary qHTS for inhibitors of nuclear receptor binding SET domain protein 2 (NSD2) in an RCH-ACV wild type WT cells (2C) (AID 1645877); note: nearly all actives have a fitted effect of over 70% in size; note: potency is the fitted concentration of half-maximal effect
# [5] = biological target: Rap guanine nucleotide exchange factor 3 (Homo sapiens) (UniProt O95398); test: Confirmatory qHTS for antagonist of cAMP-regulated guanine nucleotide exchange factor 3 (EPAC1) (AID 1645880); settings: EPAC1 Rap1B-BODIPY-GDP exchange, fluorescence; note: potency is the fitted concentration of half-maximal effect; nearly all actives have a fitted effect of over 55% in size
# Method in brief: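 Nucleotide exchange uses 100 nM EPAC1, 250 nM RAP1B-BODIPY-GDP and 50 uM GDP, with compounds in a concentration-titration series. After 5 min at room temperature, fluorescence (480 nm ex/540 nm em) is read every 5 min for 30 min. Data are normalized to control ATA and DMSO.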
# [6] = biological target: Rap guanine nucleotide exchange factor 4 (Homo sapiens) (UniProt Q8WZA2); test: Confirmatory qHTS for antagonist of cAMP-regulated guanine nucleotide exchange factor 4 (EPAC2) (AID 1645885); note: potency is the fitted concentration of half-maximal effect; nearly all actives have a fitted effect of over 25% in size
# [7] = NCATS anti-infectives library activity on HEK293 viability as a counter-qHTS vs the C. elegans viability qHTS (AID 1745854); note: potency is the fitted concentration of half-maximal effect
# Method in brief: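 HEK293 cells, 1500 per well, exposed 24 hr at 37C in 5% CO2 to compounds in a 1:5 titration, up to 41.7 uM final. Viability read as CellTiter-Glo luminescence after 10 min at room temperature.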
# [8] = NCATS anti-infectives library activity on the primary C. elegans qHTS viability assay (AID 1745855; calls by dose curve)
# Method in brief: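 Viability is taken from GFP fluorescence of PE254-GFP-FLuc C. elegans imaged by laser cytometry over 7 days. Ten L1 worms per well grow at 21 °C on TOP10 E. coli capsules with titrated compound; levamisole marks toxicity.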
# [9] = biological target: Cytochrome P450 2D6 (Homo sapiens) (UniProt P10635); test: Cytochrome P450 family 2 subfamily D member 6 (CYP2D6) small molecule antagonists: luciferase biochemical (cell-free) qHTS assay (AID 1645840; active = well fitted curve in the direction sought with a large enough effect in the repeat runs; inconclusive = weak or mixed curves; inactive = no such curve, though single readings can be large; an effect the other way counts as inactive or inconclusive; note: nearly all actives have a fitted effect of over 55% in size; note: potency is the fitted concentration of half-maximal effect)
# Method in brief: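 P450-Glo luminescent screen: recombinant CYP2D6 enzyme–proluciferin substrate mix preincubated with compound 10 min at room temperature, then NADPH regeneration added for 1 h at room temperature. Detection reagent added for 20 min; luciferin light read as relative luminescence units.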
# [10] = biological target: Cytochrome P450 2C9 (Homo sapiens) (UniProt P11712); test: Cytochrome P450 family 2 subfamily C member 9 (CYP2C9) small molecule antagonists: luciferase biochemical (cell-free) qHTS assay (AID 1645842; active = well fitted curve in the direction sought with a large enough effect in the repeat runs; inconclusive = weak or mixed curves; inactive = no such curve, though single readings can be large; an effect the other way counts as inactive or inconclusive; note: nearly all actives have a fitted effect of over 55% in size; note: potency is the fitted concentration of half-maximal effect)
# Method in brief: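 Luminescence, after 20 min with luciferin detection reagent, reflected CYP2C9 turnover during a 1 h NADPH-driven reaction at 37C. Enzyme-substrate mix contained 0.4% bovine serum albumin and was preincubated with compound 10 min at room temperature.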
# Papain (Carica papaya) = Papain (Carica papaya) (UniProt P00784); test: Primary qHTS assay for inhibitors of the protease papain (AID 1645873);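 note: papain turnover of Z-FR-AMC read as the AMC fluorescence gain over 10 min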; note: potency is the fitted concentration of half-maximal effect
# [11] = biological target: Cytochrome P450 3A4 (Homo sapiens) (UniProt P08684); test: Cytochrome P450 family 3 subfamily A member 4 (CYP3A4) small molecule antagonists: luciferase qHTS assay (AID 1645841; active = well fitted curve in the direction sought with a large enough effect in the repeat runs; inconclusive = weak or mixed curves; inactive = no such curve, though single readings can be large; an effect the other way counts as inactive or inconclusive; note: potency is the fitted concentration of half-maximal effect; nearly all actives have a fitted effect of over 45% in size)
# Method in brief: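 P450-Glo CYP3A4 enzyme with proluciferin substrate preincubated 10 min with compound at room temperature, then NADPH regeneration 1 h. Luciferin detection reagent added for 20 min; luminescence recorded. Ketoconazole positive control.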
# [12] = biological target: N-terminal Xaa-Pro-Lys N-methyltransferase 1 (Homo sapiens) (UniProt Q9BV86); test: Confirmatory qHTS for Inhibitors of N-terminal methyltransferase 1 (NTMT1): MTaseGlo Assay (AID 1645874); note: potency is the fitted concentration of half-maximal effect; nearly all actives have a fitted effect of over 65% in size
# Method in brief: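 Preincubation of NTMT1 (125 nM) plus SAM (100 uM) with test compounds lasted 15 min; methylation of 1 uM SPKRIA then proceeded 30 min in the dark at room temperature. Luciferase signal reported SAH produced.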
# Tags give direction and shape of the fitted curve.
# UniProt P11712, sequence (P11712 whole entry, looked up): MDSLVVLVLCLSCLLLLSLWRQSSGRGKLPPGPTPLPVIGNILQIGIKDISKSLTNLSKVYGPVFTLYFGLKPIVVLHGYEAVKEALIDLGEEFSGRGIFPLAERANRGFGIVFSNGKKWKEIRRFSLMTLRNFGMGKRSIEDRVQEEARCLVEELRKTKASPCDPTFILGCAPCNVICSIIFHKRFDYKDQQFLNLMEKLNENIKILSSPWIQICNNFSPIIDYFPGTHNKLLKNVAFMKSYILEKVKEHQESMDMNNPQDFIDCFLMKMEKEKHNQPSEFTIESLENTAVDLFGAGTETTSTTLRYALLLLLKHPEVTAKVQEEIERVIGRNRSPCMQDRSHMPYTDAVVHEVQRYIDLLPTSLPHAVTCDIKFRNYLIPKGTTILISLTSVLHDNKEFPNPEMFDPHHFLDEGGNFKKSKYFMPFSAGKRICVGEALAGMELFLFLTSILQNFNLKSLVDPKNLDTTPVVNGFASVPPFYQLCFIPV
# UniProt P00784, sequence (P00784 whole entry, looked up): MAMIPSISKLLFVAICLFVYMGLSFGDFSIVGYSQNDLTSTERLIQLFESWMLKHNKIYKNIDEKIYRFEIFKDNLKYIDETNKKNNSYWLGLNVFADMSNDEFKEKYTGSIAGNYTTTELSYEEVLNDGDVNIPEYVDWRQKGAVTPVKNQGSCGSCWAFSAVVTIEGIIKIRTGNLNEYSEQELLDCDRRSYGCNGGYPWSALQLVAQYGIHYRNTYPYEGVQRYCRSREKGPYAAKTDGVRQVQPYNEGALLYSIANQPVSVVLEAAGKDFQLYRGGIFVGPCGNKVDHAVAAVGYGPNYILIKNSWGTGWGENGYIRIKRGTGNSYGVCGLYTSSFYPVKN
# UniProt P10635, sequence (P10635 whole entry, looked up): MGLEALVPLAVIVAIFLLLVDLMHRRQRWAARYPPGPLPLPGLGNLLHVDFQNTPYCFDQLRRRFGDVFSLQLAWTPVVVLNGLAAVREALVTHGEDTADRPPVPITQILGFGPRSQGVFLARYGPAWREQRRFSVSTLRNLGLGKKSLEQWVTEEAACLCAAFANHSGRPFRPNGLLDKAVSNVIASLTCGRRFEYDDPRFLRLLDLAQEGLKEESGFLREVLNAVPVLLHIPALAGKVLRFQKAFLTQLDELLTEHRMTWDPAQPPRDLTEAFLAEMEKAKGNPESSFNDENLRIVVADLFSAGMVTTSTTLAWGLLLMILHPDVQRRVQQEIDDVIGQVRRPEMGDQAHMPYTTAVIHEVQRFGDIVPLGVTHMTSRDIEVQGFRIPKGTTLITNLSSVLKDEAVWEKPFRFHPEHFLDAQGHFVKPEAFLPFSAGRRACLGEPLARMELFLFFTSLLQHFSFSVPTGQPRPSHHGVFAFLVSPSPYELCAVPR
# UniProt P08684, sequence (P08684 whole entry, looked up): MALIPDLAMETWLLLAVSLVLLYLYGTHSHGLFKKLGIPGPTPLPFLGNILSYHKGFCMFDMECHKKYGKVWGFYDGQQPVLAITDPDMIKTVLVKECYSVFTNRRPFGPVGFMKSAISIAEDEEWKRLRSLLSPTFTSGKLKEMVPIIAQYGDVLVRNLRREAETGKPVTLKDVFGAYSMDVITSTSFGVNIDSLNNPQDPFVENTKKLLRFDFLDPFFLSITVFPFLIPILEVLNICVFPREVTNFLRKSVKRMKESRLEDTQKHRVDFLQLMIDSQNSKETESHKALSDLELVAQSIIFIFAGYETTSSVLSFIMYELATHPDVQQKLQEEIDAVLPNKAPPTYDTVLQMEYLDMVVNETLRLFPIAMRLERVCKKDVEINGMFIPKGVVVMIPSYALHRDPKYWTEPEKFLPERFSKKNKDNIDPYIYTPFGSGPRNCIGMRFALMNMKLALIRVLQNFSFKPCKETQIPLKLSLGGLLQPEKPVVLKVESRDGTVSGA
# UniProt Q8WZA2, sequence (Q8WZA2 whole entry, looked up): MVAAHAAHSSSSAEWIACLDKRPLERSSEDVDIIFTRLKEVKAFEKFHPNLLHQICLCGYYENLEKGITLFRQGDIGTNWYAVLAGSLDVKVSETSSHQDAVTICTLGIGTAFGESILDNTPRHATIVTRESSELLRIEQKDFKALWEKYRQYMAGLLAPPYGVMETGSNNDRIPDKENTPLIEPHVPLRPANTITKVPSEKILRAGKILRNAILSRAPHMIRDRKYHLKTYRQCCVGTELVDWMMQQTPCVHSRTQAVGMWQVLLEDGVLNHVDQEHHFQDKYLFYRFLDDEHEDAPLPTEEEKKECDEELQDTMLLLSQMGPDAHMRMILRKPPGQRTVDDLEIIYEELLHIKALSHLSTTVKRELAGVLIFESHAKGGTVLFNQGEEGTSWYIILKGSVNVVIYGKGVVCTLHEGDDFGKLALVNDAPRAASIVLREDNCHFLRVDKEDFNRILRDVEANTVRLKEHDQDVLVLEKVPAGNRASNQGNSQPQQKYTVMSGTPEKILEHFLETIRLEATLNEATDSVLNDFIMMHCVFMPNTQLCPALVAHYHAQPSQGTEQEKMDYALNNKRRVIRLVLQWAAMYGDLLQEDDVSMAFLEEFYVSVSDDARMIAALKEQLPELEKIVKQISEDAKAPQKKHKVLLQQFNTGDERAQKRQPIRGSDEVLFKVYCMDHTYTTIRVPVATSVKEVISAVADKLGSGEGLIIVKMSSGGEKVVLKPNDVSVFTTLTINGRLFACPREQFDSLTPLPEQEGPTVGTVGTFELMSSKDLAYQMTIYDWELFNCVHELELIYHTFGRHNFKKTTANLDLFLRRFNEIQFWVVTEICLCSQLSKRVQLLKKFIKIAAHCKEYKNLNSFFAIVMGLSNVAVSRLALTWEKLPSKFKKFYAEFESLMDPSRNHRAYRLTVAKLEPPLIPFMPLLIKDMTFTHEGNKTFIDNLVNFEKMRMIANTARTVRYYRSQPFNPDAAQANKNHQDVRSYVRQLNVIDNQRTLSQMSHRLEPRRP
# UniProt O95398, sequence (O95398 whole entry, looked up): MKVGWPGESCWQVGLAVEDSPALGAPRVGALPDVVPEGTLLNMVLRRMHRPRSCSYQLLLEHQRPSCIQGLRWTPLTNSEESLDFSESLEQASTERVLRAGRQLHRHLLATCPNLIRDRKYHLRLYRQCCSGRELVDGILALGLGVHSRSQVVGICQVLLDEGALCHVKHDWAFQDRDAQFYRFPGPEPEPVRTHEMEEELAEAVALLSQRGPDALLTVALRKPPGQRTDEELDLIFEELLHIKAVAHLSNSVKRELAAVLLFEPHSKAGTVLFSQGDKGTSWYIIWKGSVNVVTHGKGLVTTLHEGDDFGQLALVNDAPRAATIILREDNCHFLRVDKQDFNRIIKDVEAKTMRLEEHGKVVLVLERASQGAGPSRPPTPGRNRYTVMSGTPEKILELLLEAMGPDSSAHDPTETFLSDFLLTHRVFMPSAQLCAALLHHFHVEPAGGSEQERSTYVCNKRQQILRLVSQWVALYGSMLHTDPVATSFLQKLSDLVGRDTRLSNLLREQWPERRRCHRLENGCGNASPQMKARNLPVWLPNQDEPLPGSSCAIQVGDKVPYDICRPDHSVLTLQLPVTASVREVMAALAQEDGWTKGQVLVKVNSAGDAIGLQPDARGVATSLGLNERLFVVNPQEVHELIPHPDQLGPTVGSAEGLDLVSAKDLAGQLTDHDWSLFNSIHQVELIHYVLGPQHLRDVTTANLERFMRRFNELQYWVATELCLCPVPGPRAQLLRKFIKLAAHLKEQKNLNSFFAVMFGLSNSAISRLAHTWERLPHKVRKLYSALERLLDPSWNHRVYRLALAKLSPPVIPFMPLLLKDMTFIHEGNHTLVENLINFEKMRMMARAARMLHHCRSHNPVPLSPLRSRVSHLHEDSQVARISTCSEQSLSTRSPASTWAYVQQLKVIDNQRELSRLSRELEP
# UniProt Q9BV86, sequence (Q9BV86 whole entry, looked up): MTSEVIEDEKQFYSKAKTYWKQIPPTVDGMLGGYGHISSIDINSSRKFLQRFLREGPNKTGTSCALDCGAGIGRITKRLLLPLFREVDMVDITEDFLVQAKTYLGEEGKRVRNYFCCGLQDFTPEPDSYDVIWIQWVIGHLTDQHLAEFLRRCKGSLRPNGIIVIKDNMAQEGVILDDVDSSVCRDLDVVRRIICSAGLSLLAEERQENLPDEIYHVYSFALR
compound,measurement,setting,value
OCCN1CCN(CCCN2c3ccccc3Sc3ccc(C(F)(F)F)cc32)CC1,Potency,[1],"inconclusive: 28.2 µM [inhibitor, single point]"
same,Potency,[2],"inconclusive: 28.2 µM [inhibitor, partial curve, poor fit]"
same,Potency,[3],"inconclusive: 3.32 µM [inhibitor, full curve, poor fit]"
same,Potency,[4],"inconclusive: 2.95 µM [inhibitor, full curve, poor fit]"
same,Potency,[5],"inconclusive: 39.5 µM [inhibitor, partial curve]"
same,Potency,[6],active: 44.1 µM
same,Potency,[7],"inconclusive: 14.1 µM [cytotoxic, single point]"
same,Potency,[8],inactive
CCOC(=O)C1=C[C@]2(CC)CCCN3CCc4c(n1c1ccccc41)[C@@H]32,Potency,[1],"inconclusive: 28.2 µM [inhibitor, single point]"
same,Potency,[2],inactive
same,Potency,[9],active: 4.9 µM
same,Potency,[10],"inconclusive: 38.9 µM [inhibitor, partial curve, poor fit]"
same,Potency,Papain (Carica papaya),"inconclusive: 22.4 µM [inhibitor, single point]"
same,Potency,[3],"inconclusive: 33.5 µM [inhibitor, partial curve, poor fit]"
same,Potency,[4],"inconclusive: 26.6 µM [inhibitor, single point]"
CCCn1c(=O)c2[nH]c(-c3cnn(Cc4cccc(C(F)(F)F)c4)c3)nc2n(CC)c1=O,Potency,[1],inactive
same,Potency,[9],inactive
same,Potency,[4],inactive
C=CC[N+]1([C@H]2C[C@H]3[C@@H]4CC[C@H]5C[C@H](O)[C@@H](N6CCOCC6)C[C@]5(C)[C@@H]4CC[C@]3(C)[C@H]2OC(C)=O)CCCC1,Potency,[1],inactive
O=C(Nc1cccc(Br)c1)c1cccc(S(=O)(=O)N2CCCCCC2)c1,Potency,[1],inactive
same,Potency,[9],"inconclusive: 8.49 µM [inhibitor, partial curve]"
same,Potency,[3],"inconclusive: 9.34 µM [inhibitor, single point]"
same,Potency,[4],"inconclusive: 9.16 µM [inhibitor, partial curve]"
CN(C)C1CCN(C(=O)c2ccc(NC(=O)Nc3nc(N4CCOCC4)nc(N4CCOCC4)n3)cc2)CC1,Potency,[1],"inconclusive: 10.6 µM [inhibitor, partial curve, poor fit]"
CC(C)C[C@@H](N)[C@H](O)C(=O)N[C@H](C(=O)N[C@H](C(=O)N[C@@H](CC(=O)O)C(=O)O)C(C)C)C(C)C,Potency,[1],inactive
COc1cc2c(cc1Cc1cccc(Cl)c1F)c(=O)c(C(=O)O)cn2[C@H](CO)C(C)C,Potency,[1],inactive
same,Potency,[3],active: 7.42 µM
CC1(C)O[C@@H]2C[C@H]3[C@@H]4CCC5=CC(=O)C=C[C@]5(C)[C@@H]4[C@@H](O)C[C@]3(C)[C@]2(C(=O)CO)O1,Potency,[1],inactive
same,Potency,[11],"inconclusive: 17.4 µM [falling, partial curve, poor fit]"
same,Potency,[10],"inconclusive: 34.7 µM [inhibitor, single point]"
same,Potency,[3],inactive
same,Potency,[4],"inconclusive: 0.0299 µM [inhibitor, full curve, poor fit]"
O=c1c(O)c(-c2cc(O)c(O)c(O)c2)oc2cc(O)cc(O)c12,Potency,[1],"inconclusive: 10 µM [inhibitor, partial curve, poor fit]"
same,Potency,Papain (Carica papaya),"inconclusive: 28.2 µM [inhibitor, partial curve]"
same,Potency,[4],"inconclusive: 26.3 µM [inhibitor, single point]"
COc1ccc2cc(-c3nc(-c4ccc(S(C)=O)cc4)[nH]c3-c3ccncc3)ccc2c1 (stereo not drawn),Potency,[1],"inconclusive: 9.43 µM [inhibitor, partial curve, poor fit]"
same,Potency,[3],active: 23.5 µM and active: 20.5 µM
Cn1c(=O)c2[nH]cnc2n(C)c1=O,Potency,[1],"inconclusive: 28.2 µM [inhibitor, single point]"
same,Potency,[3],inactive
O=C1N(c2ccccc2)c2ccccc2C1(Cc1ccncc1)Cc1ccncc1,Potency,[1],"inconclusive: 28.2 µM [inhibitor, single point] and inactive"
same,Potency,[9],inactive
same,Potency,[4],"inconclusive: 11.9 µM [inhibitor, partial curve, poor fit] and inactive"
Cc1cc(C(=O)N2CCN(c3cccc(Cl)c3)CC2)n(-c2ccccc2)n1,Potency,[1],inactive
same,Potency,[3],active: 2.09 µM
same,Potency,[4],active: 1.32 µM
Nc1nc(OCc2ccccc2)c2[nH]cnc2n1,Potency,[1],inactive
same,Potency,[3],"inconclusive: 37.2 µM [inhibitor, partial curve, poor fit]"
same,Potency,[4],"inconclusive: 33.2 µM [inhibitor, partial curve, poor fit]"
Cc1ccc(C(=O)N(CCCN)[C@@H](c2oc3cc(Cl)ccc3c(=O)c2Cc2ccccc2)C(C)C)cc1,Potency,[1],inactive
same,Potency,[3],active: 0.0332 µM
Nc1cc(C(Cl)=C(Cl)Cl)c(S(N)(=O)=O)cc1S(N)(=O)=O,Potency,[1],"inactive and inconclusive: 35.5 µM [inhibitor, partial curve, poor fit]"
same,Potency,[3],inactive
CC(S)C(=O)NCC(=O)O (stereo not drawn),Potency,[1],inactive
same,Potency,[3],inactive
same,Potency,[4],"inconclusive: 23.7 µM [inhibitor, single point] and inactive"
CC(=O)OC1C(C)OC(Oc2c(-c3ccc(O)cc3)oc3cc(O)cc(O)c3c2=O)C(O)C1OC(C)=O (stereo not drawn),Potency,[1],"inconclusive: 0.53 µM [inhibitor, full curve, poor fit]"
same,Potency,[3],"inconclusive: 37.2 µM [inhibitor, single point]"
same,Potency,[4],"inconclusive: 37.2 µM [inhibitor, single point]"
CCNc1cc(NC2CCC(O)CC2)nc(Nc2ccc3c(ccn3Cc3ccccc3)c2)n1 (stereo not drawn),Potency,[1],"inconclusive: 14.9 µM [inhibitor, partial curve, poor fit]"
same,Potency,[3],"inconclusive: 0.372 µM [inhibitor, full curve, poor fit]"
CN1CCN(CCOc2cc(OC3CCOCC3)c3c(Nc4c(Cl)ccc5c4OCO5)ncnc3c2)CC1,Potency,[1],inactive
same,Potency,[3],active: 3.25 µM and active: 2.63 µM
Cc1cccc(-c2[nH]ncc2-c2ccc3ncccc3n2)n1,Potency,[1],inactive
same,Potency,Papain (Carica papaya),"inconclusive: 12.6 µM [inhibitor, partial curve, poor fit]"
same,Potency,[3],"inconclusive: 13.2 µM [inhibitor, partial curve]"
same,Potency,[4],"inconclusive: 10.5 µM [inhibitor, full curve]"
O=C(NOCC(O)CO)c1cc(Br)c(F)c(F)c1Nc1ccc(I)cc1F (stereo not drawn),Potency,[1],inactive
same,Potency,[3],"inconclusive: 18.6 µM [inhibitor, partial curve, poor fit]"
C[C@@H](CN1CC(=O)NC(=O)C1)N1CC(=O)NC(=O)C1,Potency,[1],"inactive and inconclusive: 1.88 µM [inhibitor, full curve]"
same,Potency,[10],inactive
same,Potency,[4],"inconclusive: 33.5 µM [inhibitor, single point]"
NCCCCCC(=O)O,Potency,[1],active: 33.5 µM
same,Potency,Papain (Carica papaya),inactive
same,Potency,[3],inactive
CCC(=O)N[C@H]1CC[C@H](C(=O)N(C)c2ccc(-c3nc4ccccc4o3)cc2)C1,Potency,[1],inactive
same,Potency,[3],"inconclusive: 16.6 µM [inhibitor, partial curve]"
CC(C)(C#N)c1cc(Cn2cncn2)cc(C(C)(C)C#N)c1,Potency,[1],inactive
same,Potency,[3],"inconclusive: 33.5 µM [inhibitor, single point]"
same,Potency,[4],"inconclusive: 29.9 µM [inhibitor, single point] and inactive"
N#CC(c1ccnc(NCCc2cccnc2)n1)c1nc2ccccc2s1 (stereo not drawn),Potency,[1],"inconclusive: 5.3 µM [inhibitor, full curve]"
same,Potency,[12],"inconclusive: 7.58 µM [inhibitor, full curve]"
same,Potency,[3],active: 14.8 µM
same,Potency,[4],active: 14.8 µM
CC1COc2c(N3CCN(C)CC3)c(F)cc3c(=O)c(C(=O)O)cn1c23 (stereo not drawn),Potency,[1],"inconclusive: 11.2 µM [inhibitor, partial curve, poor fit]"
same,Potency,Papain (Carica papaya),"inconclusive: 6.31 µM [inhibitor, full curve]"
CCCCCCCCCCCC(CC1OC(=O)C1CCCCCC)OC(=O)C(CC(C)C)NC=O (stereo not drawn),Potency,[1],"inconclusive: 0.0013 µM [inhibitor, full curve, poor fit]"
same,Potency,[3],"inconclusive: 37.2 µM [inhibitor, partial curve, poor fit]"
same,Potency,[4],"inconclusive: 29.5 µM [inhibitor, single point]"
CCC[C@H](N[C@@H](C)C(=O)N1[C@@H]2CCCC[C@H]2C[C@H]1C(=O)O)C(=O)OCC,Potency,[1],inactive
same,Potency,[3],inactive
Cc1cccc(Nc2ccncc2S(=O)(=O)NC(=O)NC(C)C)c1,Potency,[1],"inconclusive: 31.6 µM [inhibitor, partial curve, poor fit]"
same,Potency,[10],"inconclusive: 27.5 µM [inhibitor, single point]"
CC(C)Nc1cc(C(F)(F)F)cc2nc(NC(=O)c3cccnc3)nn12,Potency,[1],inactive
same,Potency,[10],"inconclusive: 1.34 µM [inhibitor, full curve]"
CNC(=O)c1cc(COc2nnc(Nc3ccc(Cl)cc3)c3ccoc23)ccn1,Potency,[1],"inconclusive: 13.3 µM [inhibitor, partial curve]"
same,Potency,[3],"inconclusive: 5.25 µM [inhibitor, partial curve, poor fit]"
same,Potency,[4],"inconclusive: 2.95 µM [inhibitor, partial curve]"
CC(C)n1nc(-c2ccc3oc(N)nc3c2)c2c(N)ncnc21,Potency,[1],inactive
same,Potency,[10],"inconclusive: 16.9 µM [inhibitor, partial curve]"
same,Potency,[3],active: 36.5 nM and active: 29.5 nM
same,Potency,[7],"inconclusive: 0.158 µM [cytotoxic, full curve, poor fit]"
Oc1ccc(-c2nc(-c3ccc(F)cc3)c(-c3ccncc3)[nH]2)cc1,Potency,[1],"inconclusive: 20 µM [inhibitor, single point] and inconclusive: 35.5 µM [inhibitor, single point] and inconclusive: 29.8 µM [inhibitor, single point]"
same,Potency,[3],active: 5.25 µM
